Sequences with one replicate were seen in a single cluster, so their values are uncertain.
Test system: ATP
Assay: switch fluorescence ratio, 500 uM ATP over buffer (Cy3 cluster intensity, sum of 5 cycles each) (fold (ratio)); higher = stronger signal-on switching upon ATP binding; sequences stand for … in TCGTCGGCAGCGTCAGATGTGTATAAGAGACAGTTTTTTTTTTTTTTTTTTTTTTTTT…TC
Settings: aptamer strand: ATP DNA aptamer (quencher-CACCTGGGGGAGTATTGCGGAGGAAGG + anchor), 100 nM annealed; ATP concentration: 500 uM; one replicate
How it was run: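 The quencher-labelled ATP aptamer, at 100 nM, was annealed to Cy3-labelled switching-strand clusters on a modified Illumina MiSeq flow-cell. The clusters were imaged in selection buffer, then after 15 min with 500 uM ATP at 22 °C, and this buffer/ATP cycle ran five times with NaOH stripping and re-annealing between runs. Per-cluster fluorescence ratios, summed target-cycle over summed buffer-cycle Cy3 intensity, were averaged per switch-domain sequence. Clusters outside 100-1000 RFU were excluded.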
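Note: ATP exposure 15 min at 22 °C before imaging.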

| Sequence | switch fluorescence ratio |
| --- | --- |
| TATTCCCATT | 1.01 |
| TTGTTGAAGA | 1.05 |
| AAAGTAAGGG | 0.979 |
| ACGAGGTGCC | 0.97 |
| ATTTGGATA | 1.01 |
| TATAAGTTGG | 0.983 |
| CGAACATTGG | 0.932 |
| TCATAAACGA | 1.01 |
| CACTAGATAT | 1.04 |
| TGGTCTGCGG | 0.998 |
| CCGTGTTAAA | 1.02 |
| AATGACTCGC | 1.1 |
| CCATTATATT | 1.01 |
| GTAACGATTA | 1.01 |
| TGGTTTGATG | 0.984 |
| GTTGTTCTTA | 0.989 |
| TTCAAGCCCG | 0.966 |
| ACCGACTTTG | 0.958 |
| GGTTCCCTTT | 0.963 |
| TGGCCTTAGG | 0.978 |
| ACAGATCCAT | 0.989 |
| ACTGTAGGTT | 1.05 |
| AAGCAGGTTC | 1.02 |

| Sequence | switch fluorescence ratio |
| --- | --- |
| TGCCGCGACG | 1.05 |
| GTCTACGGGA | 1.14 |
| GCGGTCTTAA | 0.974 |
| GGAGGGCTCT | 1.02 |
| TCACAAGTGA | 0.997 |
| CAAAACGTTT | 1.01 |
| TGAGTATCGT | 0.959 |
| GTAATAAACG | 1.07 |
| CGAGTAACT | 1.02 |
| TCATCTCTCA | 0.982 |
| AATTCTAGT | 0.999 |
| TATACTTTA | 1.04 |
| TGCCGTCCGC | 0.99 |
| TAAGCGGT | 0.996 |
| GCGGTCCAAA | 1.01 |
| CTATAGCCCG | 1.04 |
| GGTCTTAGCC | 1.01 |
| ACATGCCATG | 1.03 |
| AATGACTAAA | 1.2 |
| TCAGGAGTAG | 1.04 |
| CCCGTAGTAA | 1.11 |
| TTGCCCAGGG | 1.24 |
| TGCGCTTTCG | 1.01 |

| Sequence | switch fluorescence ratio |
| --- | --- |
| CCTGATTTTG | 0.997 |
| GTTTAGTGGC | 1.02 |
| TACTGGGGG | 1.01 |
| AATTAGAAT | 0.992 |
| CGTCAACCGC | 1.23 |
| CATGTATAAC | 0.983 |
| AATCAGGTCT | 1.02 |
| CTAATCGACG | 1.02 |
| TGGGTCACG | 0.978 |
| CCCAACGGCA | 1.07 |
| GTGGGGCAAC | 0.971 |
| AGGATTGACG | 1.09 |
| AAAGGAACA | 0.938 |
| CTAAAAGGAA | 0.968 |
| CCGTTTTGTG | 1.03 |
| ACTATTCT | 1.12 |
| ATACCCAGGC | 1.43 |
| TCATAACCAT | 0.97 |
| AGATGCAGCC | 1.02 |
| TTTGCCTACT | 1.06 |
| GTAACCATCA | 1.06 |
| TCTGTGTAAA | 0.972 |
| GTTTACAC | 0.972 |

| Sequence | switch fluorescence ratio |
| --- | --- |
| ATAACTGCCA | 1.1 |
| CTTTAGTTAG | 0.979 |
| TCGTAGCGGG | 0.966 |
| CGTTTTCACA | 0.959 |
| TTTGGTTCCG | 1.05 |
| CGTCTTCTTT | 0.973 |
| TTAGTAGCGG | 0.964 |
| CTGCGACGTG | 0.963 |
| GGGACCCACA | 1.11 |
| ATGTGCAGGA | 0.999 |
| TCATGCAACT | 1.04 |
| GTACGGAGGC | 1.03 |
| AGGCACAATG | 1.01 |
| TGATGCTCAG | 0.98 |
| GTCACC | 1.02 |
| TTGGTAAGTG | 0.954 |
| AGATTCCTTA | 0.998 |
| GATTGAGTCG | 0.95 |
| TCGATTACTT | 1.08 |
| CTGGATCAGC | 1.1 |
| CCGGCAAAA | 1.3 |
| CTCGCACGTA | 1.04 |
| AGTTTATTGA | 1.02 |

| Sequence | switch fluorescence ratio |
| --- | --- |
| CCTGATATGC | 1.44 |
| TAAATGTCGT | 1.02 |
| TATAACCTTC | 2.32 |
| CTTCTACAAC | 1.16 |
| GCACGCTCTG | 1.04 |
| TTGGATAAAT | 0.955 |
| TGCGCTCGGC | 1.01 |
| ATGACGTGTC | 0.915 |
| GAATCGCTGG | 0.996 |
| TAGCTACCTG | 1.07 |
| CCGCGTCATA | 2.92 |
| TGTCGGTACG | 0.988 |
| GCATTAGCAG | 1.03 |
| TAGAGTTGGA | 0.994 |
| AGCTTGTGAC | 1.04 |
| CGACTCGGGC | 1.06 |
| ACCGGGGAGT | 1.01 |
| CCTGGAACCG | 1.86 |
| CGCGGATCGA | 0.973 |
| CCCTAACACA | 1.03 |
| CCTCGTTGGG | 1.04 |
| GGCACATTTG | 1.04 |
| CTCCGGAGGG | 1.17 |

| Sequence | switch fluorescence ratio |
| --- | --- |
| TCTGAGGGT | 0.972 |
| ACAGGCATAA | 1.06 |
| GCTACTACAC | 1.33 |
| AAGAGCCAAC | 1 |
| TCGATAGTCT | 0.983 |
| AGCGAGTGAG | 0.991 |
| TTACAAGTA | 1.02 |
| CGTTTTCATT | 0.955 |
| ATCCACTATC | 1.09 |
| ACCGATGAAT | 1.09 |
| AACCGCCGGG | 1.04 |
| ACGTGGTGGG | 0.984 |
| TCGGAATTCA | 1.04 |
| TATCGGGCAG | 1.02 |
| TAGACAATGG | 0.921 |
| TTCAGCCCTT | 1.01 |
| ATAAGAGTGC | 0.997 |
| TCATTAAAAT | 1.04 |
| GCACCATGG | 1.12 |
| GCGGTTGTTT | 0.951 |
| ATGCTCTGCT | 1.02 |
| GGGAGTAGG | 1 |
| CATCGGCGGA | 1.07 |

| Sequence | switch fluorescence ratio |
| --- | --- |
| TTAAGCTAA | 0.996 |
| GCTGGTATTT | 0.961 |
| CATTCTTCGT | 1 |
| ACATTATCTC | 1.01 |
| TTTACGTGAT | 1.07 |
| GAGTTAT | 1.01 |
| TTTTACGCGG | 0.996 |
| CCAAGCTGCA | 1.32 |
| TTCGGCTATA | 1.02 |
| GCGCCAGCGC | 1.01 |
| ATTATGGG | 0.947 |
| GGTCGCTAGT | 0.991 |
| CCACGCCATA | 1.93 |
| GCTTTGTGGT | 1.02 |
| GGGGCCTGTG | 0.979 |
| GAATGCGGTC | 1.03 |
| TCAAGCGAGA | 0.984 |
| TAAAAGAGTT | 1.01 |
| GCAATCACGA | 2.67 |
| CATCAAAATC | 2.03 |

From the supplement of paper PMC10126150
